From PubChem BioAssay (NCI)
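These data come from cells grown in 96-well plates and exposed to compound for 48 hours at five concentrations. At the GI50, growth is halved. Definition used: TGI = concentration required for complete inhibition of growth.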

These compounds were tested on NCI-H322M lung (assay: NCI anticancer screen, dose series, 48 h).

O=C1C=C(c2c(O)ccc3ccccc23)c2cc(O)ccc2C1=O and O=C(CNc1ccc(Cl)cc1Cl)Nn1c(-c2ccccc2)nc2ccccc2c1=O are within 1.5-fold of each other in TGI: 33.1 µM for the first, 29.1 µM for the second.

Compared with C=C1C(=O)[C@@]23CC[C@@H]4[C@@]5(C)CCC[C@@]4(OC5=O)[C@@]2(C)CC[C@@H]1C3, C=CC1(C)CC(=O)C2(O)C(C)(O1)C(OC(C)=O)C(O)C1C(C)(C)CCC(O)C12C (stereo unspecified) is higher in TGI: 17.2 µM for the first, > 112 µM for the second.

Cc1cc(C)nc(NS(=O)(=O)c2ccc(Nc3c4ccccc4nc4c(C(=O)N5CCN(CCO)CC5)cccc34)cc2)n1 and CCOC(=O)c1c2cccccc-2nc1Nc1cccc2c(C)ccnc12 cannot be ordered by TGI: > 100 µM for the first, > 10 µM for the second.

Compared with COc1ccc(NC(=O)CSc2nnc(-c3ccc(NC(C)=O)cc3)o2)cc1, COc1ccc2oc(=N)c(C(=O)Nc3ccccc3)cc2c1 is higher in TGI: 30.2 µM for the first, > 100 µM for the second.

Cc1cc(OP2(=O)NCc3ncccc3O2)ccc1Cl (stereo unspecified) and CCc1n[nH]c(=O)n1-c1ccc2ccccc2c1 cannot be ordered by TGI: > 100 µM for the first, > 100 µM for the second.

COc1ccc(CC(N)=O)cc1OC and COc1cc(C=O)ccc1O cannot be ordered by TGI: > 1250 µM for the first, > 100 µM for the second.

First: COC(=O)/C=C/c1cc(OC(C)=O)c2c(c1)C(C(=O)OC)C(c1ccc(OC(C)=O)c(OC(C)=O)c1)O2 (stereo unspecified)
Second: COC(=O)C1=CN(CC2=CC(=O)C(C)=CC2=O)C=C(C(=O)OC)C1c1ccccc1OC
The TGI of the first is lower: 51.1 µM for the first, > 82.1 µM for the second.

O=C1C/C(Br)=C\c2ccccc2-c2ccccc21 and O=C1C(=Nc2ccc(Nc3ccccc3)cc2)Oc2ccccc21 are within 1.5-fold of each other in TGI: 13 µM for the first, 18.4 µM for the second.

Compared with CCCCCCCC(=O)OCC1OC(n2cc(F)c(=O)[nH]c2=O)C(N)C(OC(=O)CCCCCCC)C1O (stereo unspecified), CCCCCCCCCCCC[N+]12CC[N+](CCN)(CC1)CC2 is higher in TGI: 33.2 µM for the first, > 100 µM for the second.

O=C1NC(O)CCN1C1OC(CO)C(O)C1O (stereo unspecified) and CCOC(=O)C(NC(=O)CC)(N1CCN(c2cc3c(cc2F)c(=O)c(C(=O)O)cn3C2CC2)CC1)C(F)(F)F (stereo unspecified) cannot be ordered by TGI: > 250 µM for the first, > 100 µM for the second.

Going from O=[N+]([O-])c1cc2oc(CSc3ccccc3)nc2cc1Cl to O=[N+]([O-])c1cccnc1N=Nc1c(O)[nH]c2ccccc12, the TGI falls from > 100 µM to 34 µM.

First: O=C1c2cccc3cccc(c23)C(=O)N1CCN(CCO)CCO
Second: CCCCOCCOC1=C(Cl)C(=O)c2c(O)ccc(O)c2C1=O
The TGI of the first is 23-fold higher: 74.3 µM for the first, 3.21 µM for the second.

CCOC(=O)Nc1c(C)nc2ccccn12 and CCOC(=O)Cc1csc(Nc2ccccc2[N+](=O)[O-])n1 cannot be ordered by TGI: > 100 µM for the first, > 100 µM for the second.

Compared with COc1cc(C2c3cc4c(cc3[C@@H](Nc3ccccc3)C3COC(=O)[C@H]23)OCO4)cc(OC)c1O (stereo partly specified), COc1cc2c(cc1OCCCN1CCN(CCCOc3cc4c(cc3OC)C(=O)N3CC(F)(F)C[C@H]3C=N4)CC1)N=C[C@@H]1CC(F)(F)CN1C2=O is lower in TGI: > 100 µM for the first, 75.2 µM for the second.

CCOC(=O)/C(C(C)=O)=C(\OC(C)=O)c1ccncc1C(=O)O and CN(Cc1cnc2nc(N)nc(N)c2n1)c1ccc(C(=O)N[C@@H](CCS(=O)(=O)O)C(=O)O)cc1 cannot be ordered by TGI: > 100 µM for the first, > 100 µM for the second.

O=C(NN1C(=O)CS(=O)(=O)C1c1ccc(C(F)(F)F)cc1)c1ccncc1 (stereo unspecified) and N#Cc1sc2c(c1OC(=O)c1ccc(C(F)(F)F)cc1)c(=O)n(-c1ccccc1)c(=S)n2-c1ccccc1 cannot be ordered by TGI: > 100 µM for the first, > 100 µM for the second.

CN(C)Cc1cc(C(=O)/C=C/c2ccc([N+](=O)[O-])cc2)cc(CN(C)C)c1O and CC1(C)CCc2c(ccc(C(=O)/C=C/c3ccc(O)cc3)c2O)O1 are within 1.5-fold of each other in TGI: 15.9 µM for the first, 22.7 µM for the second.

N#CC(I)CS(=O)(=O)c1ccccc1 (stereo unspecified) and OC(C#CCN1CCCC1)(c1ccccc1)c1ccccc1Cl (stereo unspecified) cannot be ordered by TGI: > 100 µM for the first, > 100 µM for the second.

COc1c(C)c(OCC=C(C)C)cc(CO)c1CO and C=C(C)C(C1C=C(CCC(C=O)=C(C)C)C(=O)O1)C1(OC)C=C(C)C(=O)O1 (stereo unspecified) cannot be ordered by TGI: > 100 µM for the first, > 100 µM for the second.

CC(C)C1CN(C(=O)OCc2ccccc2)C2N1C(=O)C2(C)OCc1ccccc1 (stereo unspecified) and Cc1nc2ccccc2c(-n2cccn2)c1CCn1cccn1 cannot be ordered by TGI: > 100 µM for the first, > 100 µM for the second.

Going from CC(C)C1=CC23CCC4C(C)(C(=O)O)CCCC4(C)C2CC1C1C(=O)N(CCCCCCN2C(=O)C4C5CC6C7(C)CCCC(C)(C(=O)O)C7CCC6(C=C5C(C)C)C4C2=O)C(=O)C13 (stereo unspecified) to COc1cc(/C=C2\CCCCC3=C2N=C2SC(C)=CN2C3c2cc(OC)c(OC)c(OC)c2)cc(OC)c1OC (stereo unspecified), the TGI rises from 22.4 µM to > 100 µM.

Going from O=C(OCC(Cl)(Cl)Cl)N1CC[C@H](C2CCCCC2)C1 to OC(c1cc2cc(Cl)ccc2c2cc(C(F)(F)F)ccc12)C1CCCCN1 (stereo unspecified), the TGI falls from 35.4 µM to 3.33 µM (11-fold).

First: Nc1ncnc2c1ccn2C/C=C/CO
Second: CNCCCNc1ccnc2cc(Cl)ccc12
The TGI of the first is higher: > 100 µM for the first, 62.7 µM for the second.

O=C1CSC2(CC(/C=C/c3cccs3)=NN2c2cccc(S(=O)(=O)O)c2)N1c1nc2ccccc2s1 (stereo unspecified) and CCN(CCNS(C)(=O)=O)c1ccc(N)c(C)c1 cannot be ordered by TGI: > 100 µM for the first, > 100 µM for the second.

[N-]=[N+]=CC(=O)OC(CCl)CCl and O=C(NCCCl)O/N=C/c1cccnc1 cannot be ordered by TGI: > 100 µM for the first, > 100 µM for the second.

Going from COC(=O)/C=C/c1cc(OC(C)=O)c2c(c1)C(C(=O)OC)C(c1ccc(OC(C)=O)c(OC(C)=O)c1)O2 (stereo unspecified) to COC(=O)C1=CN(CC2=CC(=O)C(C)=CC2=O)C=C(C(=O)OC)C1c1ccccc1OC, the GI50 rises from 7.07 µM to 43.9 µM (6.2-fold).

Compared with CCOC(=O)Nc1c(C)nc2ccccn12, CCN(CCNS(C)(=O)=O)c1ccc(N)c(C)c1 is lower in GI50: > 100 µM for the first, 35.1 µM for the second.

Going from N#CC(I)CS(=O)(=O)c1ccccc1 (stereo unspecified) to CNCCCNc1ccnc2cc(Cl)ccc12, the GI50 falls from > 100 µM to 19.5 µM.

Compared with NC(=S)N/N=C/c1ncccc1O, C=C(C)C(C1C=C(CCC(C=O)=C(C)C)C(=O)O1)C1(OC)C=C(C)C(=O)O1 (stereo unspecified) is higher in GI50: 4.87 µM for the first, > 100 µM for the second.

Going from COc1cc(/C=C2\CCCCC3=C2N=C2SC(C)=CN2C3c2cc(OC)c(OC)c(OC)c2)cc(OC)c1OC (stereo unspecified) to COc1cc2c(cc1OCCCN1CCN(CCCOc3cc4c(cc3OC)C(=O)N3CC(F)(F)C[C@H]3C=N4)CC1)N=C[C@@H]1CC(F)(F)CN1C2=O, the GI50 falls from > 100 µM to 19.6 µM.

For OC(c1cc2cc(Cl)ccc2c2cc(C(F)(F)F)ccc12)C1CCCCN1 (stereo unspecified), the GI50 was 1.79 µM.
